± gives the standard deviation of the averaged measurements. The list shows a part of the results.

The test system of the experiment is PfAP2-I AP2 domain 3 (GST-tagged). Description: gcPBM binding intensity (ln(normalized median fluorescence intensity)); higher = stronger DNA binding. A digest of the protocol:
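An Agilent 4 × 180k array of primer-extended double-stranded 36-bp intergenic genomic probes, with negative controls, was incubated for 1 h with GST-tagged P. falciparum DNA-binding domains expressed in E. coli. Alexa488 anti-GST antibody detected bound protein, scanned at 488 nm. Binding intensity is the highest Masliner-normalised natural-log median intensity across replicate spots of either probe orientation.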
For the sequence “TTAAATGGAAAAATATGTACATATATATATATATTT [XGTACX_site2286]”, the “gcPBM binding intensity (ln)” value amounted to 7.86 ± 0.43.

With “TTTGTTAAAAATATATTATGAATAAAAATATATTTT [CACACA_negctrl_site170]”, the “gcPBM binding intensity (ln)” value is 7.31 ± 0.61.

Regarding “TACAAAATAACTAGCACACATATGTATAAACATATA [CACACA_site5948]”, the “gcPBM binding intensity (ln)” value amounted to 7.92 ± 0.28.

Regarding “TATGTCAATCAAGCAAGTACATATATATATAAATAT [XGTACX_site7554]”, the “gcPBM binding intensity (ln)” value came to 7.66 ± 0.33.

For “AATTATATTACGAAATGTACATATAATAATGTATAT [XGTACX_site4410]”, the “gcPBM binding intensity (ln)” value was 7.79 ± 0.26.

Take “GCCATTGTACCATCCACACACATATATATATGTATA [CACACA_site2704]”: the “gcPBM binding intensity (ln)” value came out at 8.6 ± 0.65.

Take “TTCAAAACTTAAAATCGTACAAGACAATTATTATAT [XGTACX_site6626]”: the “gcPBM binding intensity (ln)” value turned out to be 7.55 ± 0.37.

With “TTAAAACATAAAAAAAGTACATACAAATATATATAA [XGTACX_site789]”, the “gcPBM binding intensity (ln)” value came to 7.83 ± 0.4.

For “CATATATATTTATGTACACACATTAATAAAAAAAAA [CACACA_site5741]”, the “gcPBM binding intensity (ln)” value stood at 8.09 ± 0.099.

Take “CTTTTAATATTAAGATGTACTTAGAATTTTTTTTTT [XGTACX_site8338]”: the “gcPBM binding intensity (ln)” value was determined as 7.53 ± 0.54.

Regarding “TGTAGAGCGCAAAGTAGTACTACAAATTATGGAGGG [XGTACX_site3022]”, the “gcPBM binding intensity (ln)” value turned out to be 8.38 ± 0.46.

“AACAGCATATCACATTTCTTCAAAAAAAAATAAAAT [CACACA_negctrl_site733]”: the “gcPBM binding intensity (ln)” value came to 7.62 ± 0.54.

As for “ATATATATAAATAATTGTACTTAAAAAAAAAAAAGG [XGTACX_site6847]”, the “gcPBM binding intensity (ln)” value turned out to be 8.02 ± 0.26.

As to “TAAAAAAAGAGATATTGTACACAAAAAAATTTTACT [XGTACX_site1342]”, the “gcPBM binding intensity (ln)” value amounted to 7.82 ± 0.58.

For the sequence “AAGTTCAAAATAAATGGTACAGAAGTATATATATCA [XGTACX_site174]”, the “gcPBM binding intensity (ln)” value turned out to be 7.71 ± 0.64.

For the sequence “TAGAAAAAAAAATACATACACACAATATATTTATTT [CACACA_site3123]”, the “gcPBM binding intensity (ln)” value came out at 7.33 ± 0.67.

Turning to “AAAATCTAGGTATTTATACACACTAATATAATATAC [CACACA_site8108]”, the “gcPBM binding intensity (ln)” value worked out at 7.74 ± 0.52.

“TATATATTTGTGAAAATATTAAAATAAATAAATAAA [CACACA_negctrl_site295]”: the “gcPBM binding intensity (ln)” value came out at 7.76 ± 0.55.

In the case of “AACCCTTTTGATTTTTCTTTTTTTTTTTTTTTAAAT [CACACA_negctrl_site1667]”, the “gcPBM binding intensity (ln)” value amounted to 7.5 ± 0.69.

On to “CATATAAGACAAAAGGTGCAATTTTAATGCTTTTAT [GTGCAC_site9432]”, for which the “gcPBM binding intensity (ln)” value is 9.99 ± 0.071.

With “TAGTAAAATGGAACACGTACATATATCTATGTATAA [XGTACX_site6103]”, the “gcPBM binding intensity (ln)” value amounted to 7.73 ± 0.51.

Take “ACAGTTTGTCTGAGTAGTACATAAATACTTGAAAGG [XGTACX_site7792]”: the “gcPBM binding intensity (ln)” value was 7.93 ± 0.52.

With “AGAAGGATATTATGAAGTACACATATTGTATATGGT [XGTACX_site7503]”, the “gcPBM binding intensity (ln)” value amounted to 7.75 ± 0.43.

Turning to “CCATATATAATGACATGTACTCAAAAAAAAAAAAAA [XGTACX_site685]”, the “gcPBM binding intensity (ln)” value was determined as 8.04 ± 0.52.

“TAATTCAAACGTGTATGTATATTACTCGAAGAAATA [CACACA_negctrl_site1779]”: the “gcPBM binding intensity (ln)” value came out at 7.22 ± 0.61.

Take “TTTCAAGGATTTAATTTATGGAAACCTTCTTCATTT [GTGCAC_negctrl_site504]”: the “gcPBM binding intensity (ln)” value amounted to 7.21 ± 0.53.

In the case of “TTTTTAAAAAAAAATAGAGAGTCAAAGTATGTGGCG [CACACA_negctrl_site194]”, the “gcPBM binding intensity (ln)” value worked out at 7.95 ± 0.61.

Take “TTTCTCTTTTTTTGGGGTACAACCAATCCTATAATA [XGTACX_site297]”: the “gcPBM binding intensity (ln)” value was found to be 8.23 ± 0.33.

Regarding “ATACATATATATATATGTACATATATTTATATTTAT [XGTACX_site3155]”, the “gcPBM binding intensity (ln)” value amounted to 7.74 ± 0.33.

With “ACAAATAAAAAAATTACACACATATAAAATATAGAT [CACACA_site6756]”, the “gcPBM binding intensity (ln)” value was 7.53 ± 0.51.

Regarding “TATGAGAACAAACATTGTACAATAAAAAGTAGATAT [XGTACX_site920]”, the “gcPBM binding intensity (ln)” value was determined as 8.2 ± 0.73.

With “AGGAAAATAATTAAAGCATGCTCATTATGAAATATA [TGCATGCA_site855]”, the “gcPBM binding intensity (ln)” value came to 7.55 ± 0.71.

As to “AATACATGAACTTAAAGTACTAAAAAAAAAATAATA [XGTACX_site1956]”, the “gcPBM binding intensity (ln)” value turned out to be 7.83 ± 0.4.

Regarding “TACCCACTAAAATACACACACACACCCACATATATA [CACACA_site6141]”, the “gcPBM binding intensity (ln)” value was 8.04 ± 0.26.

Turning to “AATTTGAATATTTGATGTACAAAGTTTTTTAATGTT [XGTACX_site3249]”, the “gcPBM binding intensity (ln)” value is 7.59 ± 0.4.

Take “TCTTACACTAATAAATGTACATACAAAAAATCTATT [XGTACX_site1379]”: the “gcPBM binding intensity (ln)” value is 7.91 ± 0.31.

Consider “ATAAATATAACATATTGTACCCTTAAAAAGGAACAA [XGTACX_site352]”, for which the “gcPBM binding intensity (ln)” value was 7.62 ± 0.18.

Take “AAATGTATAATTTTTTAATACACTTATTTAAAATAA [CACACA_negctrl_site797]”: the “gcPBM binding intensity (ln)” value worked out at 7.84 ± 0.35.

For the sequence “GTACCAACAGCACTACTTCTCGCCATTTTCTTGTAG [XGTACX_negctrl_site97]”, the “gcPBM binding intensity (ln)” value turned out to be 8.95 ± 0.4.

Consider “GAGAGGATAGTTCACAGTACCCAGTAACTCTACGGA [XGTACX_site4876]”, for which the “gcPBM binding intensity (ln)” value was 7.46 ± 0.57.

For “CTCAAATAACTTTTTACACACATTATTTGAAATAAG [CACACA_site6722]”, the “gcPBM binding intensity (ln)” value amounted to 7.79 ± 0.43.

“CAGAATACATACATTACACACAAATTTAAGTATATA [CACACA_site1781]”: the “gcPBM binding intensity (ln)” value turned out to be 7.54 ± 0.47.

With “ATATGAATGATCGTACGTACTTACATATTTATAAAG [XGTACX_site8041]”, the “gcPBM binding intensity (ln)” value came out at 7.86 ± 0.42.

In the case of “ATATCTATAATAAACACACAAATAGATATAACATAT [CACACA_site7702]”, the “gcPBM binding intensity (ln)” value was determined as 7.82 ± 0.66.

The values are drawn from the supplement of paper PMC11417369.
